# Measured values taken from the supplement of paper PMC11383711.
# This is one part of the list. Binding of human antibodies (heavy:light variable regions, tested as scFv in one mRNA-display pool) to influenza hemagglutinin, with or without the stem antibody CR9114 bound first. Score = (mean enrichment − median) / interquartile range of that screen; higher = more enriched, 0 = typical non-binder. Active = above the paper's cut-off per screen: stems 28; unblocked H1 Solomon Islands 5, H1 Michigan 3, H3 5, H5 19, H7 2.85, both B 5; blocked 9, 7, H5 10, H7 10, B Phuket 10, B Lee 11.5. Scores are scaled within each screen and are no affinities; replicates correlate at about 0.6 to 0.9, and antibodies rare in the pool are noisier.
# B1: 01.ac.01 (protein)
# chain 1: QVQVVQSGAEVRKPGASVRLSCKASGYTFDNYYIHWMRQAPGQGLEWMALINPSAGSTIFAQKFHGRVTMTRDTSTSAVHMELSGLRSEDTAVYYCARSQTWGYNIYFDYWGQGTLVTVSS
# chain 2: EIVLTQSPVSLSLSPGERATLSCRASQSVSIIYLAWYQQRPGQAPRLLIYGASSRATGIPDRFSGSGCGTDFTLTISRLEHEDSAVYYCQQCGGTYPTFGQGTKVEIK
# B2: antibody 3E01 (protein)
# chain 1: VQLQESGPGLLKPSETLSLICSVSDYSVTTSTSYWGWIRQTPGKGLEWIGSLSYSGFSYYNPSLRSRVTMSFDSSKKQVSLRLNSVTAADTAVYYCAILYGSIIDYWGPGILVTVSS
# chain 2: DIQMTQSPSTLSASVGDRVTITCRASQSIRTWLAWYQQKPGKAPKLLISRASILESGDPSRFSGSGSGTEFTFTISSLQPDDFATYYCQHYNNYWWTFGQGTKVEIK
# B3: C1-2-2F03 (protein)
# chain 1: VQLQESGPGLVKPSETLSLTCSVFGDSISSHYWSWIRQPPGKGLEWIGYIYYSSRTDYNPSLKSRVTISVDTSKNQVSLSLRSVTAADTAVYYCARTMDTSGWQPYYYGMDVWGQGTTVTVSS
# chain 2: EIVLTQSPGTLSLSPGERATLSCRASHTVSSNNLAWYQQKPGQAPRLLIYGSSSRAYGIPDRFSGYGAGTDFTLTISRLEPEDFAVYYCQQYGSSPMYTFGQGTKVEIK
# B4: K77-1F01 (protein)
# chain 1: EVQLVESGGGLVQPGGSLRLSCAASGFTFSSYGMNWVRQAPGKGLEWISDISSDRSTIYYADSVKGRFTISRDNAKNSLYLQMNSLRVEDTAVYYCARDFMSYFFDYWGQGTLVTVSS
# chain 2: QSALTQPASVSGSPGQSITISCTGTSSDVGAYNYVSWYQQHPGKAPKLLIYDVNNRPSGVSNRFSGSKSGNTASLTISGLQAEDEADYYCNSYTSISTGVFGGGTNVT
# B5: R95-1F03 (protein)
# chain 1: QVQLQESGPGLVKASGTLSLTCVVSGGSIRSENWWSWVRQPPGKGLEWIGEVYHSGNANYNPSLKSRVSISVDESKTQFSLRLTSVTAADTAVYYCVKDGARDSSGYYNYRWGWYDPWGQGILVVVSS
# chain 2: DIQMTQSPSSLSASVGDRVTITCRASQSIGGYLNWYQQKPGKAPKLLIYAASTLQSGVPARFSGSGSGTDFTLTISSLQPEDFATYYCQQSYNLVSITFGQGTRLDIK
# B6: antibody 2G04 (protein)
# chain 1: EVQLLESGGGVVQPGRSLRLSCAASGFIFSYSGIHWVRQAPGKGLEWVALISYDGRNQYYADSVKGRFTISRDNTKTTLQMNNLRAEDTAVYFCARDRHDFGDNYEIDYWGLGTTVTVSS
# chain 2: FMLTQPHSVSESPGKTVTISCTRSSGNIASYFVQWYQQRPGSAPTTVIFEDDQRPSGVPDRFSGSIDSSSNSASLTISGLRTEDEADYYCQSYDTINPHVIFGGGTKLTVL
# B7: antibody 3G01 (protein)
# chain 1: VQLQESGPGLVRPSKTLSLTCTVSGDSIDSSTDYWAWIRQPPGKGLEWIGNIYYSGTTYYNPSLQSRVTISVDTSKNQFSLTLRSVTAADTALFYCARQEIVGIRVWGQGTLVTVSS
# chain 2: DIVMTQSPDSLAVSLGERATISCKSSQSVLYSANNKNYLAWYQQRPGQPPKLLIYWSSTRESGVPDRFSGSGSGTDFSLTISSLQAEDVAVYYCQQYYDTPYTFGQGTKVEIK
# B8: K77-1B01 (protein)
# chain 1: EVQLVESGGVVVQPGGSLNLSCAASGFTFDDYAMHWVRQTPGKGLEWVSLISWDGGHTYYADSVKGRFTISRDNSKNFLYLEGHSLRPEDTALYYCVRDPGAGNYYYYGMDVWGHGTTVTVSS
# chain 2: DIVMTQSPDSLAVSLGERATINCKSSQSVLYRSNKKNYLAWYQQKPGQPPKLLIYWASTRESGVPDRFSGSGSGTDFTLTISSLQAEDVAVYYCQQYYTTPHTFGQGTKLEIK
# B9: R95-2F01 (protein)
# chain 1: QVQLQESGPGLVKPSETLSLTCTVSGGSISSHYWSWIRQPPGKGLEWIGYIYDSGKTNHNPTLKSRVTISADTSKNQFSLKLSSVTAADTAVYYCASARRYCSSTSCYGLEYYFGMDVWGQGTTVTVSS
# chain 2: DIVMTQSPLSLPVTPGEPASISCRSSQSLVHSNGHNYLDWYLQKPGQSPQLLIYLSSSRASGVPDRFSGSGSGTDFTLKINRVEAEDVGVYFCMQALQAPYTFGQGTRLEIK
# B10: K77-1B07 (protein)
# chain 1: QVQLVQSGAEVKKPGASVKVSCKASDYSLTNYYLHWVRQPPGQGLEWMGIIHPNGITTTYAQKFLGRVTMTRDTSTSTVYMELTSLRSDDTAVYYCARRGVVITSEGYHYYGLDVWGQGTTVTVSS
# chain 2: EIVLTQSPGTLSLSPGERATLPCRASQSVSSSYLAWYQQKPGQAPRLLIYGASSRATGIPDRFSGSGSGTDFTLSISRLEPEDFAVYYCHHYGSTGTFGGGTKVEIK
# B11: R95-1H06 (protein)
# chain 1: LVQLQESGPGLVKPSETLSLTCTVSGDSFTTYYWSWIRQPPGKGLEWIGYIYTIGRTHYNPALKSRVAISVDTSKNQFSLNLTSVTAADTAVYYCARIRIRGADYPFDHWGQGSLVTVHS
# chain 2: SYELTQPPSVSVAPGQTARISCGGDNIGSKNVHWYQQKPGRAPVLVVYDDTDRPSGIPDRFSGSNSGDTATLTITRLEAGDEADYYCHVWDSTGDHQGVFGGGTKLTVL
# B12: K77-2H01 (protein)
# chain 1: EVQLVQSGAEVKKPGESLKISCEASGDNFSSYWIAWVRQMPGKGLEWMGIIYPGDSDTRYSPPFQGQVTISADKSIRTAYLQWSSLKASDTAMYYCATSMMSFYYDESDAFRWALAAFDIWGHGTPVTVSS
# chain 2: EIVLTQSPGTLSLSPGERATLSCRASQSVASSSLAWYQQKPGQAPRLLIYSTSNRATGIPGRFSGSGSGTDFILTVNRLEPEDFAVYYCQHNDSSPAWSFGQGTKVEI
# B13: 01.r.01 (protein)
# chain 1: QVQLQESGPGLVKPSQTLSLTCTVSGGSISSGSYYWSWIRQPAGKGLEWIGSIYTSGSTDYNPSLKNRVSISIDTSKNHFSLVLSSVTAADTAVYFCARDQWEGAFSYGAGFWGQGAVVTVSS
# chain 2: DIQMTQSLSSVSASIGDRVTIICRASQGVGNWLVWYQQKPGKARKLLMYAASTLQTDVPSRVSGRGYGTEFTLTISSEQHEDYANYYCQQAHSQPRTFGQGTKVEVK
# B14: SFV018-4D01 (protein)
# chain 1: QVQLQESGPGLVKPSETLSLTCSVSGGSISPHYWSWIRQPPGKGLEWIGYIYYAGSTNYSPSLKNRVTISVDTSKNHFSLQLRSVTAADTAVYYCARGGFPAELPPPLDPWGQGNLVTVSS
# chain 2: SYELTQPPSVSVSPGQTASITCSGDNLGDKFASWYQQKPGQSPVLVIYQDIRRPSGIPERFSASNSGNTATLTISGTQVMDEADYYCQTWDSSTVLFGGGTKLTVL
# B15: SFV020-5C05 (protein)
# chain 1: VQLVESGGGVVQPGRSLRLSCAASGFSFSNYGIHWVRQVPGKGLEWVAVISHAGAYKYYADSVRGRFTISRDNSKNILYLQMNSLRVEDTAVYYCATLGGDIVVVSAERSGYYYGLDVWGQGTTVTVSS
# chain 2: DIQMTQSPSTLSASVGDRVTITCRASQSISNRLVWYQQKPGTAPKLLIYQASTLEGEVPSRFSGSGSGTEFTLTITSLQPDDLATYFCQQYNTNSRTFGQGTKVEIK
# B16: antibody 1D05 (protein)
# chain 1: VQLLESGGGLVQPGGSLRLSCAASGFAFNTYAMSWVRQAPGKGLEWVSASGGLHGASYYADSVQGRFTIYRGNSKSTLYLQMNYLRAEDTAVYYCATDLDGDEGTWFENWGQGTLVTVSS
# chain 2: EIVMTQSPATLSVSPGERATLSCRASQSLSNNLTWYQQKPGQAPRLLIYGASTRATGLPARFSGSGSGTEFTLTISSLQSEDFAVYFCQQYNNWPPTFGQGTKVEIK
# B17: 051-10-2B05 (protein)
# chain 1: EVQLVESGGGLVKPGGSLRVSCAASGFIFGTFGMNWVRQAPGKGLEWVSSISSASASIEYADAVKGRFTISRDNAEKSLYLQMNSLRADDTAVYYCARDGGVPRRYSLDVWGQGTTVTVSS
# chain 2: QSALTQPASVSGSPGQSITISCTGTSSDVGAYNLVSWYQQHPGKAPKLMIFDVTNRPSGVSNRFSGSKSGDTASLTISGLQAEDEADYFCSSYTNTRTLLFGGGTKLTVL
# B18: K77-1D09 (protein)
# chain 1: QVQLQESGPGLVKPSETLSLTCTVSDGSVSSSSYFWGWIRQPPGKGLEWIGSIYYTGDTDYNPSLKGRVTISVDSSKNQFSLRLSSLTAADTAVYYCAREGPAWVRYSFDYWGQGSLVTVSS
# chain 2: QSALTQPASVSGSPGQSITISCTGTSSDVDDYNYVSWYQQDPGKAPKLIIYHVNKRPSGVSHRFSGSKSGNTASLTISGLQAEDEADYYCSSYTSSNTPVVFGGGTKLTVL
# B19: C1-2A02 (protein)
# chain 1: VQLVESGGGLVQPGGSLRLSCVASGFDFNQYSMNWVRQAPGKGLEWLSYISSSAATVFYADSVQGRLTISRDNGKNSLFLQMNSLRVEDTAVYYCVREAVIVDGMPFEYWGQGALVTVSS
# chain 2: EIVMTQSPGTLSVSPGESATLSCRASESVGSSLAWYQQKPGQAPRLLIFHTSTRATGVPARFSGSGSGTEFTLTISGMQSEDSGVYHCHQYKGWPPWTFGQGTKVEIK
# Experiments:
# [1] = target: H1 HA stem construct (mini-HA #4900); assay: mRNA display binding score; higher = more enriched on the antigen; conditions: antigen blocked with: nothing
# Description: (§1)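 A pool of natively paired antibodies, displayed as scFv on mRNA, was selected once on antigen-coated beads and sequenced before and after; two replicates.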
# [2] = target: H3 HA stem construct (H3ssF); assay: as above; conditions: antigen blocked with: nothing
# Description: as §1
Binder,mRNA display binding score [1],mRNA display binding score [2]
B1,inactive: 0.954,inactive: 0.402
B2,inactive: -0.638,inactive: 0.316
B3,inactive: 0.927,inactive: 0.744
B4,inactive: 0.62,inactive: -0.0221
B5,inactive: -1.12,inactive: -0.281
B6,inactive: 3.47,inactive: 2.05
B7,inactive: -0.384,inactive: -0.472
B8,inactive: 0.269,inactive: -0.372
B9,inactive: -0.0191,inactive: -0.47
B10,inactive: -0.863,inactive: 0.845
B11,inactive: -0.216,inactive: -0.307
B12,inactive: 0.448,inactive: 0.788
B13,inactive: -0.987,inactive: -0.842
B14,inactive: -0.162,inactive: 0.411
B15,inactive: 0.378,inactive: 0.189
B16,inactive: 1.05,inactive: -0.161
B17,inactive: -0.0201,active: 58.5
B18,inactive: -0.55,inactive: -0.454
B19,inactive: 0.787,inactive: 0.125
